# Source: the supplement of paper PMC3334620
# In all, about 33,000 sequences were measured (“E-score (-0.5 to 0.5)”: median about -0.013, highest 2% from about 0.3 on). Some of the results follow.
# Target: T1, Msn1 (UniProt P22148)
# T1 sequence: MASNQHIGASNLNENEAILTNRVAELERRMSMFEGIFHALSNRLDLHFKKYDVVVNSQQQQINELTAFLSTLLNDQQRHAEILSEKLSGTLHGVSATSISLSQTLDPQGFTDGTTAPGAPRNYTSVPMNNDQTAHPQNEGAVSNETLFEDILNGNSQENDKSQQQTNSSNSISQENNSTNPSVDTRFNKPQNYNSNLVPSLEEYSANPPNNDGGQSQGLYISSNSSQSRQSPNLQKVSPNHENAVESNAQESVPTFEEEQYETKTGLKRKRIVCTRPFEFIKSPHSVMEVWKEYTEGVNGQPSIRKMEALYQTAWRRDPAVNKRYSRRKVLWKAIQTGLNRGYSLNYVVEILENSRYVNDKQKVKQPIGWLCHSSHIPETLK
# Assay: PBM E-score (8-mer binding enrichment) (E-score (-0.5 to 0.5)); higher = stronger / more preferred TF binding; most listed sequences are background and not binding sites
# Details: protein concentration: 200 nM; construct: GST-full length
# Method in brief: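 E-scores (a modified Wilcoxon-Mann-Whitney statistic) were assigned by the Universal PBM Analysis Suite to every ungapped eight-base word pooled with its reverse complement. The input came from universal all-10-mer Agilent arrays made double-stranded by primer extension and probed with GST-tagged yeast transcription factors at about 100-200 nM. Fluorescent anti-GST detected bound protein, and masliner normalised the scans.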
row,Sequence,PBM E-score
1,AATGCGCA,0.255
2,AGTTACGG,-0.182
3,GTCTCATA,0.204
4,ATGAACCC,0.0567
5,CGGGAGCA,-0.083
6,CACTTTGC,0.0317
7,GGTGCAGA,-0.22
8,GCAGCAAC,-0.0666
9,TATGTCCA,0.465
10,CTCCCTGA,-0.226
11,AAGCTAAC,0.0252
12,ATATTGAG,0.0703
13,AATTGCCT,0.0989
14,CCGTCTTC,-0.0391
15,AGACCCAT,-0.268
16,ACGGAGAA,-0.0172
17,CACCAAAG,0.0692
18,CTACCTGA,-0.185
19,GATGCAGC,-0.00464
20,CAATTTCC,0.0903
21,ATACATCC,-0.0771
22,CAACTAGG,0.0252
23,AGCGCTGG,-0.206
24,AACTTCCA,-0.0459
25,AATCCATT,0.0469

row,Sequence,PBM E-score
1,AGGCCGAT,0.113
2,CACCACCC,-0.144
3,CAACCGCA,0.0316
4,ATGATCTC,0.00785
5,CGTACTTA,0.142
6,GACCGCCA,-0.155
7,AACTTGGG,-0.108
8,CGTGAGTA,-0.0497
9,AAGCTCGC,0.0933
10,GAGAAGGC,-0.316
11,AAATAGTC,0.107
12,GGAATCTA,-0.0568
13,CCATGGGG,-0.149
14,CACTCCCC,-0.105
15,CGAGGTGA,0.0696
16,CACTCTGG,-0.148
17,AGCCAATA,-0.113
18,AATTGGGA,0.148
19,AACCTGTG,0.0255
20,TAACGCTA,-0.161
21,ATGGCTTG,-0.0769
22,ATTTACTG,0.0688
23,AACAATGT,0.161
24,CCGCGCAA,0.00972
25,CGATTCGA,0.134

row,Sequence,PBM E-score
1,ACACTAGT,0.0855
2,AATGCCCC,-0.197
3,CGACGCTC,-0.0884
4,GTTTGCAA,0.0769
5,AGGTTGTC,0.085
6,CTGGGCCC,-0.252
7,CCTAGTCG,-0.0499
8,CTACGAGC,-0.118
9,ACGCTGTC,-0.18
10,AAGGCCTC,-0.18
11,ATATTTTC,0.226
12,ACTCAAGA,0.0683
13,CTGCACAC,-0.225
14,AGATAGCG,-0.188
15,AACGACCG,-0.00986
16,AGTAAATA,0.196
17,ATCTCTGC,0.0623
18,GTGCAGTA,-0.0226
19,GAGCTGGA,-0.145
20,GCCAACAC,-0.00952
21,CAATCTTC,0.0437
22,TGGTTTAA,0.147
23,ATCTCGTG,0.0208
24,ATTCCCCC,-0.325
25,ATCACTCC,-0.0871

row,Sequence,PBM E-score
1,ATACGCAG,0.0264
2,CACGCCCC,-0.222
3,GATAGCTA,-0.113
4,CGACTGAC,-0.0843
5,CAAATATC,0.216
6,GTACCAGA,0.0666
7,ACGCTTCT,-0.0777
8,CCCGTACA,-0.119
9,GGAGTTAA,0.0335
10,ATCAGTGA,-0.119
11,AAAATGCT,0.0679
12,CGATGTCC,0.436
13,CGTGGTCC,-0.119
14,CCTATGAC,-0.0574
15,AGAAGGTA,0.059
16,AGTTGAGC,-0.0632
17,CCACAGGG,-0.183
18,CTGGCGAA,-0.23
19,AAGTCGAG,-0.126
20,CAGTCTTA,-0.0789
21,GGCCCGCC,-0.293
22,GTTTAGAA,0.104
23,GTTCATTA,0.097
24,AACTAAGC,0.0314
25,GAGACCCA,-0.00742

row,Sequence,PBM E-score
1,ACCAGGTG,-0.292
2,GAAAATAA,0.0878
3,CATTGCTC,-0.0154
4,ATTCGTTC,0.171
5,GAAAACTC,0.0204
6,ATCTGAGC,0.0992
7,AGAAGGAC,0.175
8,CTGAGATC,-0.0493
9,ATTTCAAC,0.207
10,CGAGGCAG,-0.0958
11,TCATGCGA,-0.0309
12,CTCCGAGA,0.152
13,TACCTCTA,0.0695
14,CAGGGAGA,-0.162
15,ACGACGGA,0.182
16,AAGTTGGG,-0.00987
17,AACTCTGC,-0.136
18,GGAAACTA,-0.0538
19,ATTTCGCG,0.136
20,CATATTGG,0.206
21,CGATAGAA,0.0218
22,CTTGGCGC,-0.153
23,CAGTTCGC,-0.0367
24,GAAATCAA,0.00318
25,AATAAAGC,0.116

row,Sequence,PBM E-score
1,AGGATCGG,-0.173
2,AGACCCGC,-0.0145
3,TAAATCAA,0.0886
4,GATCAGCA,0.0297
5,ACCGGAGG,-0.209
6,AGACCCCA,-0.239
7,ACGGATCG,-0.0717
8,TGAGCCCA,-0.131
9,ATGAGACG,-0.109
10,ACAGAGGA,-0.0275
11,ACGGTCTA,-0.00545
12,TGCTTACA,-0.0339
13,ACGTATTG,-0.0138
14,GCACGGAC,0.166
15,AGCAACAG,-0.0183
16,CGCGTCTA,0.129
17,GCTCCGGA,0.00188
18,ACAAGAGT,0.09
19,ATAAGAAG,0.0434
20,ATGTTCAG,0.0111
21,CACTGTAA,0.0549
22,CTGACACA,0.0572
23,ATACGCCC,-0.197
24,GAGGGGGC,-0.444
25,CATTACTA,-0.115

row,Sequence,PBM E-score
1,AGGTTCTA,-0.173
2,CAAGCAGC,-0.0813
3,ATCCACGA,0.0751
4,CGGCAATA,0.121
5,TAGAACTA,0.0187
6,AGCCAGGC,-0.0733
7,CGAATTCA,-0.0273
8,AAATGGCG,0.122
9,CTGGATCA,-0.0898
10,CCTACGTA,0.0633
11,AGCAATGA,0.107
12,GGAGTTCA,0.0298
13,TGATCACA,-0.13
14,AGCAACGG,0.0668
15,ATCGGTTG,0.0638
16,ATGAGGCG,-0.136
17,ACGATAGT,0.0402
18,CTGGGGGC,-0.417
19,CCAAACTA,0.119
20,CGGAAAGA,0.06
21,GAGCTGCC,-0.275
22,AACGAACT,-0.0401
